Assay results from PubChem BioAssay AID1956 (SRMLSC, 2009).
Values joined by “and” are separate entries in the source; they are usually repeats but may differ in a detail not shown here. Equal entries are not always repeated. The list shows a part of the results. The main result of the screen is listed elsewhere. These columns were measured beside it and carry no call.

experiment: enhancers of HSV replication in host cells, fold increase, host cell viability (AID 1956); conditions: HSV replication augmentation in cells; fold increase: measured here: primary screen fold increase 10 uM, at 10 µM, stronger effect = higher value; viability: measured here: host cell viability series, at 25 µM, stronger effect = lower value; further: tested in PC3 cells

| SMILES | fold increase | viability |
| --- | --- | --- |
| O=C(O)CCC(=O)NCCC1=c2ccccc2=N/C1=C\c1c(O)n(Cc2ccc(F)cc2)c(=S)[nH]c1=O | 1.61 | 103% |
| Cc1ccc(/C=C2/C(=O)NC(=O)N(CCc3ccc(F)cc3)C2=O)o1 | 1.12 |  |
| Cc1ccc2cc(C=C(C#N)C#N)c(Cl)nc2c1 | 1.32 |  |
| Cc1ccnc(-n2c(C)cc(/C=C3\C(=O)NC(=S)N(C)C3=O)c2C)c1 | 1.5 | 91.9% |
| Cc1ccc(N2C(=O)NC(=O)/C(=C\c3cc(C)n(-c4sc5c(c4C#N)CCCC5)c3C)C2=O)cc1 | 1.35 |  |
| CCN(CC)c1ccc(/C=C2\C(=O)NC(=S)N(C)C2=O)o1 | 1.88 | 94.1% |
| CCOC(=O)c1c(N)n(Cc2ccco2)c2nc3ccccc3nc12 | 1.65 | 94.8% |
| Nc1cncc(C(=O)O)c1 | 1.51 and 3.33 | 107% and 100% |
| COc1ccc(C(C)=O)cc1CC(C(=O)c1ccc(F)cc1)N(C)C (stereo not drawn) | 1.38 | 98.4% |
| O=C1NC(=O)C(=Cc2ccc(N3CCOCC3)o2)C(=O)N1 | 1.4 | 99.4% |
| N#CC1=C(N)Oc2cc(O)ccc2C1c1ccc2c(c1)OCO2 (stereo not drawn) | 2.13 | 92.6% |
| COc1ccc(-n2c(O)c(/C=C/C=Nc3ccccc3)c(=O)[nH]c2=O)cc1 | 7.24 |  |
| O=Cc1c(C(=O)O)n(Cc2ccc(Cl)cc2)c2ccccc12 | 1.41 | 98.9% |
| CCN(CC)c1ccc(CC2C(=O)N(C)C(=O)N(C)C2=O)cc1 | 1.36 | 93.5% |
| CCCCN1C(=O)/C(=C/C=C/c2ccco2)C(=O)NC1=S | 1.62 | 97.9% |
| CCN(CC)c1ccc(/C=C2/C(=O)NC(=O)N(Cc3ccco3)C2=O)cc1 | 1.51 | 92.3% |
| CN1C(=O)C(C2c3ccccc3C(=O)N2Cc2ccc([N+](=O)[O-])cc2)C(=O)N(C)C1=O (stereo not drawn) | 1.34 | 90.3% |
| CC1(C)OC(c2ccccc2)=C/C(=C/C=C2C(=O)NC(=O)NC2=O)O1 | 4.82 | 91.4% |
| O=C1NC(=O)N(Cc2ccccc2)C(=O)/C1=C/N1CCCc2ccccc21 | 1.34 | 102% |
| CCN1C(=O)/C(=C\c2ccc([N+](=O)[O-])s2)C(=O)NC1=S | 1.92 | 91.2% |
| CN(C)[C@@H]1C(=O)C(C(N)=O)=C(O)[C@@]2(O)C(=O)C3=C(O)c4c(O)cccc4[C@@](C)(O)[C@H]3C[C@@H]12 | 1.33 | 98.3% |
| O=C(/C=C/c1c[nH]c2ccccc12)c1c(O)n(CCc2ccccc2)c(=O)[nH]c1=O | 2.75 | 98.6% |
| CC1=CC(=Cc2sc3ccccc3[n+]2C)C=C(C)O1 | 1.77 | 48.4% |
| C/C(=N\N1CCCCCC1)c1c(O)n(-c2ccc(Cl)cc2)c(=O)[nH]c1=O | 1.33 | 98.3% |

| SMILES | fold increase | viability |
| --- | --- | --- |
| Cc1ccccc1N1C(=O)NC(=O)/C(=C/c2ccc(N3CCOCC3)o2)C1=O | 1.4 | 97.4% |
| CCOc1cc(/C=C2\C(=O)NC(=O)N(CCc3ccc(F)cc3)C2=O)ccc1O | 1.39 | 101% |
| CC(=O)c1c(C)n(Cc2ccccc2)c2ccc(O)cc12 | 1.33 | 90.6% |
| Cn1cccc1/C=C1\C(=O)NC(=O)N(Cc2ccco2)C1=O | 1.36 | 94.1% |
| CN1C(=O)C(=Cc2ccc(N3CCCCC3)o2)C(=O)N(C)C1=S | 3.22 | 104% |
| COc1ccccc1OP(=O)(Nc1cccnc1)Oc1ccccc1OC | 1.37 | 71.7% |
| CC(C)C[C@H]1C(=O)N2CCCC2[C@]2(O)O[C@](NC(=O)[C@@H]3C=C4c5cccc6[nH]cc(c56)CC4N(C)C3)(C(C)C)C(=O)N12 (stereo partly drawn) | 2.02 | 96% |
| O=C1NC(=O)N(c2ccc3c(c2)OCO3)C(=O)/C1=C\c1ccc(-c2ccccc2C(=O)O)o1 | 1.35 | 108% |
| CCCSc1nc(O)c(CC)c(=O)n1C(C)CC (stereo not drawn) | 1.34 | 94.1% |
| O=C1NC(=O)N(c2ccc3c(c2)OCO3)C(=O)/C1=C\c1ccc(N2CCCCC2)o1 | 1.76 | 90.3% |
| CC(C)[C@H]1C(=O)N2CCC[C@H]2[C@]2(O)O[C@](NC(=O)[C@@H]3C=C4c5cccc6[nH]cc(c56)C[C@H]4N(C)C3)(C(C)C)C(=O)N12 | 2.7 | 97.8% |
| O=C1NC(=O)N(Cc2ccccc2)C(=O)/C1=C/c1cnc(-c2ccccc2)nc1 | 2.06 | 97.5% |
| CN1/C(=C\C=C2C(=O)NC(=O)NC2=O)C(C)(C)c2ccccc21 | 7.92 |  |
| COc1ccc2c(c1)CC1(CN2C)C(=O)NC(=O)N(c2ccc(C)cc2)C1=O (stereo not drawn) | 1.35 | 100% |
| CCOC(=O)c1ccccc1NC(=O)c1c(O)[nH]c(=O)[nH]c1=O | 1.38 | 99.8% |
| Cc1ccc(N2C(=O)NC(=O)/C(=C\C=C\c3ccco3)C2=O)cc1 | 1.71 | 73.7% |
| CN(C(=O)Oc1ccc(C(C)(C)C)cc1)c1ccccc1 | 1.32 | 101% |
| Cc1ccccc1-n1c(O)c(C=Nc2ccc3c(c2)OCO3)c(=O)[nH]c1=O | 1.36 |  |
| CCc1nnc(NS(=O)(=O)c2ccc(N=Cc3c(O)n(-c4ccc(Cl)cc4)c(=O)[nH]c3=O)cc2)s1 | 1.4 | 98.2% |
| O=c1[nH]c(=O)n(-c2ccc(F)cc2)c(O)c1C=NCCN1CCCCC1 | 1.32 |  |
| O=C(NC(c1ccc(Cl)cc1)P(=O)(Oc1ccccc1)Oc1ccccc1)OCc1ccccc1 (stereo not drawn) | 1.27 |  |
| CCOC(=O)C1CCCN(c2ccc([N+](=O)[O-])c3nonc23)C1 (stereo not drawn) | 7.69 | 98.7% |
| O=c1c(C=Nc2cccnc2Cl)c(O)n(CCCCl)c(=O)n1C1CCCCC1 | 1.5 | 96.8% |
| CCC(CO)NC(=O)C1C=C2c3cccc4[nH]cc(c34)CC2N(C)C1 (stereo not drawn) | 1.44 | 93.7% |

| SMILES | fold increase | viability |
| --- | --- | --- |
| O=C1NC(=O)N(Cc2ccc(F)cc2)C(=O)/C1=C\c1ccc(N2CCCC2)cc1 | 1.35 | 89.6% |
| O=c1c2ccccc2nc(/C=C/c2ccc(O)cc2)n1-c1cccc(O)c1 | 4.97 |  |
| Clc1ccccc1CN1CCN(c2cccc3[nH]ccc23)CC1 | 1.45 | 101% |
| O=C1NC(=O)N(Cc2ccccc2)C(=O)/C1=C\c1ccco1 | 1.4 | 101% |
| CCOC(=O)C1=C(N)Oc2cc(C)oc(=O)c2C12C(=O)N1c3c(cc(OC)cc32)C(C)=CC1(C)C (stereo not drawn) | 1.54 | 93.5% |
| O=C1NC(=O)N(Cc2ccco2)C(=O)/C1=C\c1cccn1CCOc1ccc(Cl)cc1 | 1.74 | 93.3% |
| O=c1c2ccccc2nc(/C=C/c2ccc(O)cc2)n1-c1ccccc1O | 3.16 | 84.9% |
| CC(C)c1ccc(-n2c(O)c(/C=N/NC(=O)c3ccncc3)c(=O)[nH]c2=O)cc1 | 7.74 | 92.9% |
| CCCCC(=O)N/N=C/c1c(O)n(Cc2ccco2)c(=O)[nH]c1=O | 1.39 | 96.9% |
| CCN(CC)c1ccc(N=Cc2c(O)n(Cc3ccco3)c(=O)[nH]c2=O)cc1 | 1.37 | 101% |
| COc1ccc(CN2C(=O)NC(=O)/C(=C/c3ccoc3)C2=O)cc1 | 2.7 | 98.2% |
| C#CCN1C(=O)S/C(=C\c2ccc(N3CCOCC3)cc2C)C1=O | 2.04 | 100% |
| CCOP(=O)(OCC)c1cccc(OP(=O)(c2cccc([N+](=O)[O-])c2)c2cccc([N+](=O)[O-])c2)c1 | 1.32 |  |
| O=C1NC(=O)N(Cc2ccc(F)cc2)C(=O)/C1=C\C=C\c1ccco1 | 1.64 | 81.6% |
| O=C(NCCN1CCCCC1)c1ccc(Cl)nc1Cl | 1.32 |  |
| CC(C)c1ccc(N2C(=O)NC(=O)/C(=C/C=C/c3ccco3)C2=O)cc1 | 2.24 |  |
| Cc1cccc(N2C(=O)NC(=O)/C(=C\c3cc(C)n(-c4sc5c(c4C#N)CCCC5)c3C)C2=O)c1C | 1.37 |  |
| O=c1cc(C(F)(F)F)c2cc3c4c(c2o1)CCCN4CCC3 | 18.8 | 82.9% |
| O=C1NC(=O)N(c2ccc(F)cc2)C(=O)/C1=C/c1ccc2c(c1)CCCN2Cc1ccccc1 | 1.46 | 93.8% |
| O=C1NC(=O)C(=Cc2coc3ccc(O)cc3c2=O)C(=O)N1 | 1.41 | 96.8% |
| O=C1NC(=O)N(Cc2ccccc2)C(=O)/C1=C\C=C\c1ccco1 | 3.03 |  |
| CCN(CC)c1ccc(N=Cc2c(O)n(CCC3=CCCCC3)c(=O)[nH]c2=O)cc1 | 2.15 | 76.8% |
| O=C1NC(=O)N(c2cccc(Cl)c2)C(=O)/C1=C\c1ccc(Sc2nc3ccccc3[nH]2)o1 | 1.42 | 102% |
| COc1cccc(-n2c(/C=C/c3ccc(O)c(O)c3)nc3ccccc3c2=O)c1 | 7.26 | 82.7% |

| SMILES | fold increase | viability |
| --- | --- | --- |
| Cc1ccc(N2C(=O)NC(=O)/C(=C/c3cnc(-c4ccccc4)nc3)C2=O)cc1C | 2.83 | 107% |
| CCc1ccc(-n2c(O)c(/C=N/NC(=O)c3ccncc3)c(=O)[nH]c2=O)cc1 | 1.43 | 107% |
| COc1ccc(N2C(=O)NC(=O)/C(=C\c3ccc([N+](=O)[O-])s3)C2=O)cc1 | 1.61 | 100% |
| CN1C(=O)/C(=C\c2ccc(N3CCCCC3)o2)C(=O)NC1=S | 2.34 | 94.1% |
| Cc1cc2c(C(F)(F)F)cc(=O)oc2c2c1NCCC2 | 2.3 |  |
| O=C1NC(=O)N(c2ccc3c(c2)OCO3)C(=O)/C1=C/c1ccc(N2CCCCC2)o1 | 1.52 | 94.8% |
| CN(C)c1ccc(/C=C/C=C2/C(=O)NC(=O)N(c3ccccc3)C2=O)cc1 | 1.37 | 64.9% |
| Cc1cc(/C=C2\C(=O)NC(=O)N(c3ccc(Cl)cc3)C2=O)c(C)n1-c1sc2c(c1C#N)CCCC2 | 1.51 | 89.8% |
| COCCn1cc(C(=O)N2CCC3(CC2)OCCO3)c2c3ccccc3n(C)c2c1=O | 1.32 | 95.3% |
| Cc1cccc(-n2c(O)c(/C=N/Nc3nc4c(c(=O)n(C)c(=O)n4C)n3C)c(=O)[nH]c2=S)c1 | 1.36 |  |
| O=C1NC(=O)N(Cc2ccco2)C(=O)/C1=C/c1cccn1CCOc1ccccc1Cl | 1.65 | 96.8% |
| O=c1[nH]c(O)c(/C=C2/C=CC(c3cc(Cl)ccc3Cl)=N2)c(=O)[nH]1 | 1.34 | 73.8% |
| CCC(C)N1C(=O)/C(=C\c2ccc(N3CCCCCC3)cc2)C(=O)NC1=S (stereo not drawn) | 1.33 | 97.3% |
| C=CCN1C(=O)/C(=C\c2ccc(N3CCOCC3)o2)C(=O)NC1=S | 1.42 | 96.6% |
| C=CCn1c(=O)/c(=C\c2ccccn2)s/c1=C(/C#N)C(=O)NCC1CCCO1 (stereo not drawn) | 1.39 | 97.2% |
| CN1C(=O)C(=Cc2ccc(N3CCOCC3)o2)C(=O)N(C)C1=S | 1.65 |  |
| C=CCNC(=O)c1c(N)n(Cc2ccco2)c2nc3ccccc3nc12 | 1.4 | 84.4% |
| CN(C)[C@@H]1C(=O)C(C(N)=O)=C(O)[C@@]2(O)C(=O)C3=C(O)c4c(O)cccc4[C@@](C)(O)[C@H]3[C@H](O)[C@@H]12 | 1.32 | 97.4% |
| COCCNC(=O)c1c(NC(=O)c2ccc(Br)o2)n(Cc2ccccc2)c2nc3ccccc3nc12 | 2.78 | 96% |
| O=c1[nH]c(=O)n(-c2ccccc2)c(O)c1/C=C/C=Nc1ccccc1 | 2.73 | 102% |
| COc1ccc(CN2C(=O)NC(=O)/C(=C/c3ccc([N+](=O)[O-])o3)C2=O)cc1 | 1.46 | 95.5% |
| Cc1ccc(/C=C2\C(=O)NC(=O)N(CCc3ccc(F)cc3)C2=O)o1 | 1.48 | 101% |
| CCN(CC)c1ccc(C=C2C(=O)N(C)C(=S)N(C)C2=O)o1 | 1.77 | 97.3% |
